Survival data for 89 compounds are collected here from PubChem BioAssay AID463173 (ICCB-Longwood Screening Facility, Harvard Medical School, 2010).

Hit rate of the full screen: of about 52,000 compounds, about 1,700 (3.3%) were called active. No stated cut-off is given here; in the data, active means survival mostly below about 52% (no sharp cut-off); inactive means mostly above about 56%. Some of the results follow.

The experiment relates to Wild type. Nature of the experiment: S. aureus survival, RN4220 and DeltatarO strains – OD600, teichoic acid synthesis inhibitors, primary screen (AID 463173). As to conditions: S. aureus RN4220 wild type/DeltatarO growth, OD600, 18 h, stronger effect = lower value, screened at 18.75 µg/mL (by protocol).
For `C[N+]1=C(/C=C/Nc2ccccc2)SCC1`, the survival was inactive: 111%.
Then `CCCN1C(=O)c2[nH]nc(-c3ccc(OC)cc3)c2C1c1ccccn1` (centres undefined), with inactive: 81%; and `COC(=O)c1sc(N2C(=O)c3oc4cc(C)c(C)cc4c(=O)c3C2c2ccccc2F)nc1C` (centres undefined), with inactive: 69%.
Then `Cc1cccc(Cn2c(CN3CCC(C(=O)NCc4ccccc4Cl)CC3)cc3ccccc32)c1`, with inactive: 78%; and `Cc1ccc(C(=O)Nc2cc(-c3nc4cc(Cl)ccc4o3)ccc2C)c(C)c1`, with inactive: 79%; and `O=C(O)CCSc1nc2ccccc2o1`, with inactive: 99%.
As for `COc1ccc(Cn2c(CNS(=O)(=O)c3ccc(Cl)s3)nc3cccnc32)cc1`, the survival was inactive: 78%.
As for `O=S(=O)(NCc1csc(-c2ccccc2)n1)c1ccccc1`, the survival was inactive: 76%.
Regarding `CCOCCCNC(=O)C1CCN(c2nc3ccc(Cl)cc3[nH]2)CC1`, the survival was inactive: 88%.
Then `COc1ccc(CN2CCc3nc(N4CCN(c5ccc(F)cc5)CC4)ncc3C2)c(OC)c1OC`, with inactive: 131%; and `O=C(c1cnn(-c2ccc(F)cc2)c1-n1cccc1)N1CCN(c2cccc(Cl)c2)CC1`, with inactive: 65%; and `Cc1ccc(NC(=O)c2cnc3cc(C)ccn3c2=O)c(C)c1`, with inactive: 88%.
Then `Cc1ccc2[nH]c(C)c(CN3CC(C)OC(C)C3)c(=O)c2c1` (centres undefined), with inactive: 109%; and `COc1ccc(-c2cc(C(=O)Nc3cc(C)nn3-c3ccccc3)no2)cc1OC`, with inactive: 78%; and `CCCCSc1nc(-c2cccc(OC)c2)nc2c1Cc1c(CO)cnc(C)c1O2`, with inactive: 86%.
Then `O=C(CSc1nnc(-c2ccncc2)o1)Oc1ccccc1`, with inactive: 103%; and `CC1CCCCN1C(=O)CN1CCSc2ccccc21` (centres undefined), with inactive: 76%; and `CCC(=O)Nc1ccc(CC)cc1-c1nc2ccccc2n(CC(=O)c2ccc(OC)cc2)c1=O`, with inactive: 74%.
As for `Cc1cc(C)nc(Sc2ccccc2)n1`, the survival is inactive: 107%.
As for `Cc1c(Cl)cccc1NC(=O)c1oc2ccc(S(=O)(=O)N3CCC4(CC3)OCCO4)cc2c1C`, the survival was inactive: 153%.
Then `O=S(=O)(NCc1ccc(F)cc1)c1ccc2[nH]c3c(c2c1)CCCC3`, with active: -3%; and `Cc1ccc(-c2cc(NC(=O)c3cccc(C)c3)on2)cc1`, with inactive: 97%.
Then `CCc1nonc1NC(=O)c1oc2cc(C)c(C)cc2c1C`, with inactive: 114%; and `Cc1cc(/C=C(/C#N)C(=O)NCc2ccccc2)c(C)n1-c1cccnc1`, with inactive: 118%.
As for `COc1ccc(NC(=O)C2Cc3ccccc3CN2S(=O)(=O)c2ccccc2)cc1OC` (centres undefined), the survival was inactive: 69%.
Then `COc1ccc(C(=O)Oc2ccc(C(c3c(C)[nH][nH]c3=O)c3c(C)[nH][nH]c3=O)cc2)cc1`, with inactive: 68%; and `CCc1cccc(-n2c(=O)c3cccnc3n2CC(=O)Nc2ccc(OC)c(Cl)c2)c1`, with inactive: 126%; and `CC(C)N1CC2=C(OC(N)=C(C#N)C2c2cccnc2)/C(=C/c2cccnc2)C1` (centres undefined), with inactive: 102%.
In the case of `CCc1ccccc1NC(=O)CCCn1c(=O)c2cccn2c2ccccc21`, the survival is inactive: 101%.
Then `COc1cccc(-n2c(SCC(N)=O)nc3c(oc4ccccc43)c2=O)c1`, with inactive: 58%; and `O=C1CN(C(=O)Cc2ccccc2)C(c2ccc(F)cc2)c2cc(Br)ccc2N1` (centres undefined), with inactive: 66%; and `Cc1cc(S(=O)(=O)Nc2ccc3oc4c(c3c2)CCCC4)ccc1Cl`, with inactive: 46%.
Then `CCCc1nn2c(=O)cc(COC(=O)c3ccc(NC(=O)COc4ccccc4F)cc3)nc2s1`, with inactive: 121%.
Then `O=C(CCCOc1ccccc1)Nc1ncn[nH]1`, with inactive: 110%; and `CCOc1ccc(CCNCc2c(C(=O)O)c(C)n(Cc3ccccc3F)c2C)cc1`, with inactive: 104%; and `Cc1ccc(S(=O)(=O)N2CCc3cc(C(=O)Nc4ccc(Cl)cc4C)ccc32)cc1`, with inactive: 84%.
`COc1ccc(NS(=O)(=O)c2ccc3c(c2)[C@H]2C=CC[C@H]2[C@@H](c2ccc(C(=O)O)cc2)N3)cc1`: the survival is inactive: 68%.
As to `Cc1noc(-c2ccc(-c3noc(-c4ccc([N+](=O)[O-])c(C)c4)n3)cc2)n1`, the survival is inactive: 53%.
Then `CC1Cc2cc(S(=O)(=O)NCc3ccc(Cl)cc3)ccc2N1C(=O)C1CCC1` (centres undefined), with inactive: 74%.
On to `CC(C)c1ccc(N2C(=O)N(Cc3cccc([N+](=O)[O-])c3)c3ccccc3S2(=O)=O)cc1`, for which the survival was inactive: 71%.
Then `CSc1nc(-c2ccc(Cl)cc2)nn1S(=O)(=O)c1ccc(NC(C)=O)cc1`, with inactive: 102%; and `CCOc1ccc(NC(=O)[C@@H](c2ccccc2)N2Cc3ccccc3C2=O)cc1`, with inactive: 79%.
Then `Cc1cccn2c(=O)c(C(=O)N3CCN(c4ccc(Cl)cc4)CC3)cnc12`, with inactive: 87%.
Then `CCN(CC)c1ccc(NC(=O)CCc2c(C)nc3ncnn3c2C)c(C)c1`, with inactive: 119%.
Take `COc1cc(C2C(C(=O)Nc3ccccc3C)=C(C)Nc3nc(SCc4cc(C)ccc4C)nn32)ccc1O` (centres undefined): the survival was inactive: 119%.
Take `O=S(=O)(NCCc1csc2nc(-c3ccccc3)nn12)c1ccc(Oc2ccccc2)cc1`: the survival is inactive: 57%.
For `O=C(CSc1nnc(-c2ccccc2)o1)NC1CCCC1`, the survival is inactive: 103%.
Then `Cc1ccc(-n2nnnc2CNC(=O)C2CC(=O)N(c3ccccc3)C2)cc1C` (centres undefined), with inactive: 68%; and `CC(=O)OCC1OC(OC(C)=O)C(NC(=O)C(C)C)C(OC(C)=O)C1OC(C)=O` (centres undefined), with inactive: 108%; and `Cc1ccc(Cl)cc1N1CCN(C(=O)c2noc3c2CCCC3)CC1`, with inactive: 73%.
Then `COc1ccc(Cl)cc1NC(=O)Cn1nnc2sc(-c3ccccc3)cc2c1=O`, with inactive: 73%.
Then `CN(C)c1ccc(NC(=O)Cn2cc(S(=O)(=O)Cc3ccccc3Cl)c3ccccc32)cc1`, with inactive: 71%; and `CCOC(=O)c1ccc(NC(=O)CSc2ncc(S(=O)(=O)c3ccc(C)c(Cl)c3)c(=O)[nH]2)cc1`, with inactive: 71%; and `Fc1ccccc1N1CCN(c2ncnc3c2nc2n3CCCC2)CC1`, with inactive: 72%.
For the compound `Clc1cccc(-n2ncc3c(NC4CCCCCC4)ncnc32)c1`, the survival was inactive: 81%.
`COc1ccc(CCNC(=O)CCCCn2c(=O)c3ccccc3n(Cc3ccccc3)c2=O)cc1OC`: the survival was inactive: 98%.
Then `CCOc1ccc(NC(=O)Cn2cc(C(=O)c3ccc(C)cc3)c(=O)c3cc4c(cc32)OCO4)cc1`, with inactive: 62%; and `CCc1ccc(CN(Cc2ccco2)C(=O)c2cc(-c3ccc(C)c(F)c3)on2)cc1`, with inactive: 118%.
Then `CCOCCc1nn2c(=O)cc(COC(=O)c3ccccc3NC(=O)c3ccc(C)cc3)nc2s1`, with inactive: 88%; and `CCn1cc2nc(SCC(=O)Nc3ccc(OC)cc3OC)n(Cc3ccc(Cl)cc3)c(=O)c2n1`, with inactive: 68%.
On to `CCCCN(C)c1nnc(NC(=O)Nc2ccc(Br)c(C)c2)s1`, for which the survival was inactive: 88%.
Then `Cc1ccc2nc3c(c(Nc4ccc(C)c(C)c4)c2c1)CCC3`, with inactive: 39%; and `CCn1c2c(c(=O)n3ncc(C(=O)Nc4ccc(Cl)cc4C)c13)CN(Cc1ccc(OC)cc1)CC2`, with inactive: 76%.
Consider `Brc1cccc(-c2nnn3c2nc(N2CCCCC2)c2ccccc23)c1`, for which the survival was inactive: 76%.
Then `Cc1ccc(F)cc1S(=O)(=O)N1CCC(c2nc3ccccc3s2)CC1`, with inactive: 96%; and `COC(=O)Cn1c(C(=O)OC)cc2c1ccn2-c1ccc(F)cc1`, with inactive: 126%.
Then `CCCn1c(=O)c2sccc2n2c(CCCC(=O)NC3CCCCC3)nnc12`, with inactive: 86%.
Then `O=C(CNS(=O)(=O)c1cccs1)N1CCN(c2ccccc2F)CC1`, with inactive: 60%; and `COc1ccc(C2C=C(c3ccc(Cl)cc3)Nc3nc(NC(=O)CCC(=O)O)nn32)cc1` (centres undefined), with inactive: 83%; and `Cc1ccccc1Nc1c(-c2c[nH]c3ccccc23)nc2cccc(C)n12`, with inactive: 148%.
Regarding `Cc1ccccc1Cn1c(C)c(CNCCCc2ccccc2)c(C(=O)O)c1C`, the survival is inactive: 98%.
Then `Cc1ccc(N(Cc2cccs2)C(=O)c2ccccc2[N+](=O)[O-])cc1`, with inactive: 82%; and `Cc1ccc(NC(=O)CCc2nc3cccnc3n2-c2ccccc2)cc1Cl`, with inactive: 74%; and `COc1ccc(-c2csc3nc(-c4ccc(C)cc4)oc(=O)c23)cc1OC`, with inactive: 100%.
Then `O=c1c2sc3ccccc3c2n(Cc2ccc(Cl)cc2)c(=O)n1Cc1ccco1`, with inactive: 77%; and `O=C(Nc1ccc(F)cc1Cl)c1cnc(N2CCOCC2)c2ccccc12`, with inactive: 126%; and `CCCOc1cccc(C(=O)N2CCCCC2CCN2CCCCC2)c1` (centres undefined), with inactive: 85%.
As to `CCC(C)NC(=O)Cn1c(=O)c2cccn2c2ccc(F)cc21` (centres undefined), the survival is inactive: 88%.
Then `COc1cccc(CNC(=O)c2cc(=O)[nH]c3ccc(S(=O)(=O)N4CCCC4)cc23)c1`, with inactive: 92%; and `Cc1ccccc1NC(=O)CCn1nc(-c2ccc(Cl)cc2)c2ccccc2c1=O`, with inactive: 121%; and `CS(=O)(=O)N(CC(=O)N1CCCCC1)C1CCCCC1`, with inactive: 101%.
Then `COc1ccc(CNC(=O)CC2Oc3ccc(C)cc3NC2=O)cc1` (centres undefined), with inactive: 78%.
With `COc1cccc(CC(=O)Nc2ccc3nc(Nc4cccc(C(F)(F)F)c4)cc(C)c3c2)c1`, the survival is inactive: 19%.
Then `COC(=O)c1cc2oc3ccccc3c2n1CC(=O)Nc1ccc(F)c(Cl)c1`, with inactive: 77%; and `Cc1ccc(S(=O)(=O)N2CCc3cc(C(=O)Nc4c(C)cccc4C(C)C)ccc32)cc1`, with inactive: 86%.
In the case of `Cc1cccc(Cn2c(CN3CCCC(C)C3)nc3c2c(=O)n(C)c(=O)n3C)c1` (centres undefined), the survival was inactive: 80%.
Then `COc1ccc(CCNc2nc(SCc3cccc(Cl)c3)nc3ccccc23)cc1OC`, with inactive: 75%; and `CCOc1ccc(CCNC(=O)c2nn(C)c3c2CSc2ccc(C)cc2-3)cc1OCC`, with inactive: 65%.
Then `COCCCNC(=O)c1ccc(-n2c(-c3ccccc3)cc3c2CCCCC3)cc1`, with inactive: 83%.
